# Several values for one entry are separate records, joined by “and”; a condition that tells them apart may be missing. Equal entries are not always repeated. The inconclusive results got no clear call from the source; some entries with a clear call stand among them for comparison. A potency beside an inconclusive call is a rough fit, not a confirmed value. Activity calls are given as the source filed them. Calls come from the whole dose curve; as a rule, active = well fitted curve in the direction sought with a large enough effect in the repeat runs; inconclusive = weak or mixed curves; inactive = no such curve, though single readings can be large; an effect the other way counts as inactive or inconclusive.
# Target: Cytochrome P450 2D6 (Homo sapiens) (UniProt P10635)
# Assay: Cytochrome P450 family 2 subfamily D member 6 (CYP2D6) small molecule antagonists: luciferase biochemical (cell-free) qHTS assay (AID 1645840); note: nearly all actives have a fitted effect of over 55% in size; for activity change, negative = inhibition: % is set by controls: 0 for no effect and ±100 for the full control effect
# Details: P450-Glo CYP2D6 enzyme, luciferin luminescence, 1 h; series mostly up to 57.4 µM; activity change, negative = inhibition: at the top concentration
# Method in brief: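 P450-Glo CYP2D6 system: proluciferin substrate converted by enzyme to luciferin, read by luminescence proportional to activity. Enzyme-substrate mix with compound 10 min at room temperature, then NADPH regeneration 1 h before detection reagent.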
# Potency is the fitted concentration of half-maximal effect; tags give direction and shape of the fitted curve.
# UniProt P10635, sequence (P10635 whole entry, looked up): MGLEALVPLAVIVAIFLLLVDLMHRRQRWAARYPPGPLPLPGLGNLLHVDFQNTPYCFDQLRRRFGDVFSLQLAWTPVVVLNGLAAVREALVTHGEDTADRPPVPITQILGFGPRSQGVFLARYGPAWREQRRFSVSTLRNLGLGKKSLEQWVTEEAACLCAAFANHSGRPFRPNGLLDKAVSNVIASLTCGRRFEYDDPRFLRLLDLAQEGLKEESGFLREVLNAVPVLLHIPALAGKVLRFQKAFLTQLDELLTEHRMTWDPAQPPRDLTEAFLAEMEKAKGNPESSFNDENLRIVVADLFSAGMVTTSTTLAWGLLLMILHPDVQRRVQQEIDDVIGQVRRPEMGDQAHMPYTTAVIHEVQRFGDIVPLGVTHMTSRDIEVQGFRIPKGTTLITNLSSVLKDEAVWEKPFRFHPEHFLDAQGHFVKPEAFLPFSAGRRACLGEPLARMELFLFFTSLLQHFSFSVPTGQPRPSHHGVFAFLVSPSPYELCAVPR
Compound,Potency,"activity change, negative = inhibition"
O=c1c(-c2ccc(O)cc2)coc2cc(O)cc(O)c12,"inconclusive: 19.5 µM [inhibitor, single point]",–
COc1ccc2nc(NC(=O)Nc3ccccc3)sc2c1,–,inactive: -20.6%
Cc1c(Nc2ncccc2C(=O)O)cccc1C(F)(F)F,–,inactive: 0.558%
Cc1ccc(O)c(-n2nc3ccccc3n2)c1,"inconclusive: 15.5 µM [inhibitor, partial curve]",–
c1ccc(CCNc2nc(-c3ccccc3)cs2)cc1,active: 5.49 µM,–
COCCOC(=O)C1=C(C)NC(C)=C(C(=O)OC/C=C/c2ccccc2)C1c1cccc([N+](=O)[O-])c1 (stereo not given),"inconclusive: 9.77 µM [inhibitor, partial curve]",–
Cc1ccc2c(n1)Oc1ccc(C(C)C(=O)OCC(=O)N(C)C)cc1C2 (stereo not given),"inconclusive: 27.5 µM [inhibitor, single point] and inconclusive: 27.5 µM [inhibitor, partial curve, poor fit]",–
CCCCC1C(=O)N(c2ccccc2)N(c2ccc(O)cc2)C1=O (stereo not given),"inconclusive: 34.7 µM [inhibitor, single point]",–
Cc1ccc(NC(=O)c2ccc(CN3CCN(C)CC3)cc2)cc1Nc1nccc(-c2cccnc2)n1,inactive,–
CC[C@]1(O)C[C@H]2CN(CCc3c([nH]c4ccccc34)[C@@](C(=O)OC)(c3cc4c(cc3OC)N(C=O)[C@H]3[C@@](O)(C(=O)OC)[C@H](OC(C)=O)[C@]5(CC)C=CCN6CC[C@]43[C@@H]65)C2)C1,"inconclusive: 27.5 µM [inhibitor, single point]",–
O=C(/C=C/c1ccccc1)NCCO,"inconclusive: 12.3 µM [inhibitor, partial curve]",–
CCCCCCCCCCCCCCCC(=O)OC(C)C,"inconclusive: 0.0107 µM [inhibitor, full curve, poor fit]",–

# Target: Cytochrome P450 3A4 (Homo sapiens) (UniProt P08684)
# Assay: Cytochrome P450 family 3 subfamily A member 4 (CYP3A4) small molecule antagonists: luciferase qHTS assay (AID 1645841); note: nearly all actives have a fitted effect of over 45% in size
# Details: P450-Glo CYP3A4 enzyme assay, luciferin luminescence; series mostly up to 57.4 µM; activity change, negative = inhibition: at the top concentration
# Method in brief: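 Luminescent CYP3A4 activity readout: compounds plus enzyme-substrate mix 10 min at room temperature, reaction started with NADPH regenerating system for 1 h, stopped with detection reagent, read after 20 min. Ketoconazole served as control.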
# UniProt P08684, sequence (P08684 whole entry, looked up): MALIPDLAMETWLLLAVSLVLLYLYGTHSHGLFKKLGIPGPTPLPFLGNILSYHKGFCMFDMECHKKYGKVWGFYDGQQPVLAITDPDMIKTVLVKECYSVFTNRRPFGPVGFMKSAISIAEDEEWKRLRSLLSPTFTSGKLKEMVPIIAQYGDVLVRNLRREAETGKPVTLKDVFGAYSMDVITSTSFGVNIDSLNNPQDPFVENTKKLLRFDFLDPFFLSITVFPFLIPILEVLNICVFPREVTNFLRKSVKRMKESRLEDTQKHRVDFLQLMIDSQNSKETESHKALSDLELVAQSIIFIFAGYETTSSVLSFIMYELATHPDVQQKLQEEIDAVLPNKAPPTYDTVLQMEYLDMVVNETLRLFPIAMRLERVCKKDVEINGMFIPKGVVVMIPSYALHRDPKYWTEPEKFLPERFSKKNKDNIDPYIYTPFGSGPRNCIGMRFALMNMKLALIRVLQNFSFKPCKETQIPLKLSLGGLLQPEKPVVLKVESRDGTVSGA
row,Compound,Potency
1,Cc1ccc(O)c(-n2nc3ccccc3n2)c1,"inconclusive: 4.36 µM [falling, full curve]"
2,CC[C@]1(O)C[C@H]2CN(CCc3c([nH]c4ccccc34)[C@@](C(=O)OC)(c3cc4c(cc3OC)N(C=O)[C@H]3[C@@](O)(C(=O)OC)[C@H](OC(C)=O)[C@]5(CC)C=CCN6CC[C@]43[C@@H]65)C2)C1,"inconclusive: 19.5 µM [falling, single point]"
3,CCCCCCCCCCCCCCCC(=O)OC(C)C,"inconclusive: 1.51 µM [falling, single point]"
